# In the supplement of paper PMC8728848:
# Some of the results follow.
# B1: Gal 8 (Mus musculus), Q9JL15 (protein)
# chain: MGGSHHHHHHGMASMLSLNNLQNIIYNPIIPYVGTITEQLKPGSLIVIRGHVPKDSERFQVDFQLGNSLKPRADVAFHFNPRFKRSSCIVCNTLTQEKWGWEEITYDMPFRKEKSFEIVFMVLKNKFQVAVNGRHVLLYAHRISPEQIDTVGIYGKVNIHSIGFRFSSASALPHTLGDLQSMETSALGLTQINRENIQKPGKLQLSLPFEARLNASMGPGRTVVIKGEVNTNARSFNVDLVAGKTRDIALHLNPRLNVKAFVRNSFLQDAWGEEERNITCFPFSSGMYFEMIIYCDVREFKVAINGVHSLEYKHRFKDLSSIDTLSVDGDIRLLDVRSW
# Key:
# Assay in all cases: glycan array binding signal (z-score within array); higher = stronger binding
# Conditions in all cases: glycan notation: IUPAC condensed, linker removed
# [1] = molecular target: Neu5Ac(a2-6)GlcNAc(b1-4)GlcNAc(b1-4)GlcNAc
# Outline: (§1)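 Glycan array data came from 3228 arrays in the Consortium for Functional Glycomics database, and only arrays with an available protein sequence were kept. Glycan names were put into IUPAC-condensed notation, and columns mapping to the same glycan were averaged. The binding signal is a within-array Z-score, averaged across arrays of one protein sequence run at different concentrations or buffers and across linkers. A negative Z-score can be read as non-binding.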
# Neu5Ac(a2-8)Neu5Ac = molecular target: Neu5Ac(a2-8)Neu5Ac
# Outline: as §1
# [2] = molecular target: Neu5Ac(a2-8)Neu5Ac(a2-3)Gal(b1-3)GalNAc(b1-4)[Neu5Ac(a2-3)]Gal(b1-4)Glc
# Outline: as §1
# [3] = molecular target: Neu5Ac(a2-8)Neu5Ac(a2-3)Gal(b1-3)GalNAc(b1-4)[Neu5Ac(a2-8)Neu5Ac(a2-3)]Gal(b1-4)Glc
# Outline: as §1
# [4] = molecular target: Neu5Ac(a2-8)Neu5Ac(a2-3)Gal(b1-4)Glc
# Outline: as §1
# [5] = molecular target: Neu5Ac(a2-8)Neu5Ac(a2-3)Gal(b1-4)GlcNAc
# Outline: as §1
# [6] = molecular target: Neu5Ac(a2-8)Neu5Ac(a2-3)[Gal(b1-3)GalNAc(b1-4)]Gal(b1-4)Glc
# Outline: as §1
# [7] = molecular target: Neu5Ac(a2-8)Neu5Ac(a2-3)[GalNAc(b1-4)]Gal(b1-4)Glc
# Outline: as §1
# [8] = molecular target: Neu5Ac(a2-8)Neu5Ac(a2-8)Neu5Ac
# Outline: as §1
# [9] = molecular target: Neu5Ac(a2-8)Neu5Ac(a2-8)Neu5Ac(a2-3)Gal(b1-4)Glc
# Outline: as §1
# [10] = molecular target: Neu5Ac(a2-8)Neu5Ac(a2-8)Neu5Ac(a2-3)[Gal(b1-3)GalNAc(b1-4)]Gal(b1-4)Glc
# Outline: as §1
# [11] = molecular target: Neu5Ac(a2-8)Neu5Ac(a2-8)Neu5Ac(a2-3)[GalNAc(b1-4)]Gal(b1-4)Glc
# Outline: as §1
# [12] = molecular target: Neu5Ac(a2-8)Neu5Ac(a2-8)Neu5Ac(a2-8)Neu5Ac(a2-3)[GalNAc(b1-4)]Gal(b1-4)Glc
# Outline: as §1
# [13] = molecular target: Neu5Ac(a2-8)Neu5Gc(a2-3)Gal(b1-4)GlcNAc
# Outline: as §1
# [14] = molecular target: Neu5Ac(b2-6)Gal(b1-4)GlcNAc
# Outline: as §1
# Neu5Ac(b2-6)GalNAc = molecular target: Neu5Ac(b2-6)GalNAc
# Outline: as §1
# [15] = molecular target: Neu5Ac9Ac(a2-3)Gal(b1-3)GlcNAc
# Outline: as §1
# [16] = molecular target: Neu5Ac9Ac(a2-3)Gal(b1-4)GlcNAc
# Outline: as §1
# [17] = molecular target: Neu5Ac9Ac(a2-6)Gal(b1-4)GlcNAc
# Outline: as §1
# [18] = molecular target: Neu5Gc(a2-3)Gal(b1-3)GlcNAc
# Outline: as §1
# [19] = molecular target: Neu5Gc(a2-3)Gal(b1-3)[Fuc(a1-4)]GlcNAc
# Outline: as §1
# Neu5Gc(a2-3)Gal(b1-4)Glc = molecular target: Neu5Gc(a2-3)Gal(b1-4)Glc
# Outline: as §1
# [20] = molecular target: Neu5Gc(a2-3)Gal(b1-4)GlcNAc
# Outline: as §1
# [21] = molecular target: Neu5Gc(a2-3)Gal(b1-4)GlcNAc(b1-3)Gal(b1-4)GlcNAc(b1-2)Man(a1-3)[Neu5Gc(a2-3)Gal(b1-4)GlcNAc(b1-3)Gal(b1-4)GlcNAc(b1-2)Man(a1-6)]Man(b1-4)GlcNAc(b1-4)GlcNAc
# Outline: as §1
# [22] = molecular target: Neu5Gc(a2-3)Gal(b1-4)[Fuc(a1-3)]GlcNAc
# Outline: as §1
# [23] = molecular target: Neu5Gc(a2-6)Gal(b1-4)GlcNAc
# Outline: as §1
# Neu5Gc(a2-6)GalNAc = molecular target: Neu5Gc(a2-6)GalNAc
# Outline: as §1
# [24] = molecular target: Neu5Gc(a2-8)Neu5Ac(a2-3)Gal(b1-4)GlcNAc
# Outline: as §1
# [25] = molecular target: Neu5Gc(a2-8)Neu5Gc(a2-3)Gal(b1-4)GlcNAc
# Outline: as §1
# [26] = molecular target: Neu5Gc(a2-8)Neu5Gc(a2-3)Gal(b1-4)GlcNAc(b1-3)Gal(b1-4)GlcNAc
# Outline: as §1
# [27] = molecular target: Neu5Gc(a2-8)Neu5Gc(a2-6)Gal(b1-4)GlcNAc
# Outline: as §1
# [28] = molecular target: Neu5Gc(b2-6)Gal(b1-4)GlcNAc
# Outline: as §1
binder,measurement,setting,value
B1,glycan array binding signal (z-score),[1],-0.545
same,glycan array binding signal (z-score),Neu5Ac(a2-8)Neu5Ac,-0.531
same,glycan array binding signal (z-score),[2],0.316
same,glycan array binding signal (z-score),[3],-0.07
same,glycan array binding signal (z-score),[4],0.578
same,glycan array binding signal (z-score),[5],-0.296
same,glycan array binding signal (z-score),[6],-0.224
same,glycan array binding signal (z-score),[7],-0.538
same,glycan array binding signal (z-score),[8],-0.545
same,glycan array binding signal (z-score),[9],-0.057
same,glycan array binding signal (z-score),[10],-0.539
same,glycan array binding signal (z-score),[11],-0.541
same,glycan array binding signal (z-score),[12],-0.528
same,glycan array binding signal (z-score),[13],-0.294
same,glycan array binding signal (z-score),[14],-0.549
same,glycan array binding signal (z-score),Neu5Ac(b2-6)GalNAc,-0.539
same,glycan array binding signal (z-score),[15],0.182
same,glycan array binding signal (z-score),[16],-0.495
same,glycan array binding signal (z-score),[17],-0.546
same,glycan array binding signal (z-score),[18],0.086
same,glycan array binding signal (z-score),[19],-0.514
same,glycan array binding signal (z-score),Neu5Gc(a2-3)Gal(b1-4)Glc,-0.313
same,glycan array binding signal (z-score),[20],-0.51
same,glycan array binding signal (z-score),[21],0.192
same,glycan array binding signal (z-score),[22],-0.534
same,glycan array binding signal (z-score),[23],-0.526
same,glycan array binding signal (z-score),Neu5Gc(a2-6)GalNAc,-0.497
same,glycan array binding signal (z-score),[24],-0.272
same,glycan array binding signal (z-score),[25],-0.264
same,glycan array binding signal (z-score),[26],-0.061
same,glycan array binding signal (z-score),[27],-0.545
same,glycan array binding signal (z-score),[28],-0.496
